{"source": "paper PMC9911399", "about": "“Two distinct binding modes provide the RNA-binding protein RbFox with extraordinary sequence specificity”", "binders": {"B1": {"name": "CUGACAA (DNA:RNA)", "RNA": "GGGAGACCGGAAUUCAGAUUGUCCCUGACAAUUAAAUCCCGUCGUAGCCACCA", "DNA 1": "CAATCTGAATTCCGGTCTCCC", "DNA 2": "TGGTGGCTACGACGGGATT"}, "B2": {"name": "CCGGGCG (DNA:RNA)", "RNA": "B1 RNA with U26C, A28G, C29G, A30C, A31G", "DNA 1": "CAATCTGAATTCCGGTCTCCC", "DNA 2": "TGGTGGCTACGACGGGATT"}, "B3": {"name": "AAGGUUG (DNA:RNA)", "RNA": "B1 RNA with C25A, U26A, A28G, C29U, A30U, A31G", "DNA 1": "CAATCTGAATTCCGGTCTCCC", "DNA 2": "TGGTGGCTACGACGGGATT"}, "B4": {"name": "UUACCCA (DNA:RNA)", "RNA": "B1 RNA with C25U, G27A, A28C, A30C", "DNA 1": "CAATCTGAATTCCGGTCTCCC", "DNA 2": "TGGTGGCTACGACGGGATT"}, "B5": {"name": "AUCCUCG (DNA:RNA)", "RNA": "B1 RNA with C25A, G27C, A28C, C29U, A30C, A31G", "DNA 1": "CAATCTGAATTCCGGTCTCCC", "DNA 2": "TGGTGGCTACGACGGGATT"}, "B6": {"name": "GGGCAUA (DNA:RNA)", "RNA": "B1 RNA with C25G, U26G, A28C, C29A, A30U", "DNA 1": "CAATCTGAATTCCGGTCTCCC", "DNA 2": "TGGTGGCTACGACGGGATT"}, "B7": {"name": "AUUGGCU (DNA:RNA)", "RNA": "B1 RNA with C25A, G27U, A28G, C29G, A30C, A31U", "DNA 1": "CAATCTGAATTCCGGTCTCCC", "DNA 2": "TGGTGGCTACGACGGGATT"}, "B8": {"name": "CCAUCCC (DNA:RNA)", "RNA": "B1 RNA with U26C, G27A, A28U, A30C, A31C", "DNA 1": "CAATCTGAATTCCGGTCTCCC", "DNA 2": "TGGTGGCTACGACGGGATT"}, "B9": {"name": "CGCAACU (DNA:RNA)", "RNA": "B1 RNA with U26G, G27C, C29A, A30C, A31U", "DNA 1": "CAATCTGAATTCCGGTCTCCC", "DNA 2": "TGGTGGCTACGACGGGATT"}, "B10": {"name": "GGCCGAU (DNA:RNA)", "RNA": "B1 RNA with C25G, U26G, G27C, A28C, C29G, A31U", "DNA 1": "CAATCTGAATTCCGGTCTCCC", "DNA 2": "TGGTGGCTACGACGGGATT"}, "B11": {"name": "AGACAAG (DNA:RNA)", "RNA": "B1 RNA with C25A, U26G, G27A, A28C, C29A, A31G", "DNA 1": "CAATCTGAATTCCGGTCTCCC", "DNA 2": "TGGTGGCTACGACGGGATT"}, "B12": {"name": "GUUGGGC (DNA:RNA)", "RNA": "B1 RNA with C25G, G27U, A28G, C29G, A30G, A31C", "DNA 1": "CAATCTGAATTCCGGTCTCCC", "DNA 2": "TGGTGGCTACGACGGGATT"}, "B13": {"name": "CGAUUAC (DNA:RNA)", "RNA": "B1 RNA with U26G, G27A, A28U, C29U, A31C", "DNA 1": "CAATCTGAATTCCGGTCTCCC", "DNA 2": "TGGTGGCTACGACGGGATT"}, "B14": {"name": "CCUUCUU (DNA:RNA)", "RNA": "B1 RNA with U26C, G27U, A28U, A30U, A31U", "DNA 1": "CAATCTGAATTCCGGTCTCCC", "DNA 2": "TGGTGGCTACGACGGGATT"}, "B15": {"name": "AAUGGAC (DNA:RNA)", "RNA": "B1 RNA with C25A, U26A, G27U, A28G, C29G, A31C", "DNA 1": "CAATCTGAATTCCGGTCTCCC", "DNA 2": "TGGTGGCTACGACGGGATT"}, "B16": {"name": "CCUGCCA (DNA:RNA)", "RNA": "B1 RNA with U26C, G27U, A28G, A30C", "DNA 1": "CAATCTGAATTCCGGTCTCCC", "DNA 2": "TGGTGGCTACGACGGGATT"}, "B17": {"name": "GCCCUGC (DNA:RNA)", "RNA": "GGGAGACCGGAAUUCAGAUUGUCCGCCCUGCUUAAAUCCCGUCGUAGCCACCA", "DNA 1": "CAATCTGAATTCCGGTCTCCC", "DNA 2": "TGGTGGCTACGACGGGATT"}, "B18": {"name": "AAGGGUC (DNA:RNA)", "RNA": "B1 RNA with C25A, U26A, A28G, C29G, A30U, A31C", "DNA 1": "CAATCTGAATTCCGGTCTCCC", "DNA 2": "TGGTGGCTACGACGGGATT"}, "B19": {"name": "AGGGUGC (DNA:RNA)", "RNA": "B17 RNA with G25A, C26G, C27G, C28G", "DNA 1": "CAATCTGAATTCCGGTCTCCC", "DNA 2": "TGGTGGCTACGACGGGATT"}, "B20": {"name": "ACUAUUA (DNA:RNA)", "RNA": "B1 RNA with C25A, U26C, G27U, C29U, A30U", "DNA 1": "CAATCTGAATTCCGGTCTCCC", "DNA 2": "TGGTGGCTACGACGGGATT"}, "B21": {"name": "CUGCCAU (DNA:RNA)", "RNA": "B1 RNA with A28C, A31U", "DNA 1": "CAATCTGAATTCCGGTCTCCC", "DNA 2": "TGGTGGCTACGACGGGATT"}, "B22": {"name": "GCGCCUG (DNA:RNA)", "RNA": "B17 RNA with C27G, U29C, G30U, C31G", "DNA 1": "CAATCTGAATTCCGGTCTCCC", "DNA 2": "TGGTGGCTACGACGGGATT"}, "B23": {"name": "CGCAUGA (DNA:RNA)", "RNA": "B1 RNA with U26G, G27C, C29U, A30G", "DNA 1": "CAATCTGAATTCCGGTCTCCC", "DNA 2": "TGGTGGCTACGACGGGATT"}, "B24": {"name": "UAAUCCG (DNA:RNA)", "RNA": "B1 RNA with C25U, U26A, G27A, A28U, A30C, A31G", "DNA 1": "CAATCTGAATTCCGGTCTCCC", "DNA 2": "TGGTGGCTACGACGGGATT"}, "B25": {"name": "UUACAUC (DNA:RNA)", "RNA": "B17 RNA with G25U, C26U, C27A, U29A, G30U", "DNA 1": "CAATCTGAATTCCGGTCTCCC", "DNA 2": "TGGTGGCTACGACGGGATT"}, "B26": {"name": "UUCGGAU (DNA:RNA)", "RNA": "B1 RNA with C25U, G27C, A28G, C29G, A31U", "DNA 1": "CAATCTGAATTCCGGTCTCCC", "DNA 2": "TGGTGGCTACGACGGGATT"}, "B27": {"name": "CGACUAA (DNA:RNA)", "RNA": "B1 RNA with U26G, G27A, A28C, C29U", "DNA 1": "CAATCTGAATTCCGGTCTCCC", "DNA 2": "TGGTGGCTACGACGGGATT"}, "B28": {"name": "UCGGUAA (DNA:RNA)", "RNA": "B1 RNA with C25U, U26C, A28G, C29U", "DNA 1": "CAATCTGAATTCCGGTCTCCC", "DNA 2": "TGGTGGCTACGACGGGATT"}, "B29": {"name": "GAUUAUG (DNA:RNA)", "RNA": "B17 RNA with C26A, C27U, C28U, U29A, G30U, C31G", "DNA 1": "CAATCTGAATTCCGGTCTCCC", "DNA 2": "TGGTGGCTACGACGGGATT"}, "B30": {"name": "AUGCUGC (DNA:RNA)", "RNA": "B17 RNA with G25A, C26U, C27G", "DNA 1": "CAATCTGAATTCCGGTCTCCC", "DNA 2": "TGGTGGCTACGACGGGATT"}, "B31": {"name": "CUGCCUG (DNA:RNA)", "RNA": "B1 RNA with A28C, A30U, A31G", "DNA 1": "CAATCTGAATTCCGGTCTCCC", "DNA 2": "TGGTGGCTACGACGGGATT"}}, "note": "Where a chain is given by its changes, count along the chain named. This is one part of the list.", "data": [{"biological_target": "T1, RBFOX1 RRM (Homo sapiens, UniProt Q9NWB1 109-208)", "T1 sequence": "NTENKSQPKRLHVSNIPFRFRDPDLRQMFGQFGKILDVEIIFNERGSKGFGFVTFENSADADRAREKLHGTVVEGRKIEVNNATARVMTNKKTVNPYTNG", "assay": "EMSA; HiTS-Eq, 1 nM pool, 10 min; buffer printed only for the single-RNA assays: 10 mM Tris pH 7.5, 150 mM NaCl, 3.4 mM EDTA, 0.001% NP-40, 30 C", "details": "tags: His6 N-terminal (pET28a); label: 5' 32P", "summary_of_the_method": "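Purified wild-type or mutant RbFox RRM at increasing concentrations was equilibrated with 1 nM of 5′-radiolabelled RNA carrying 7 randomized nucleotides for 10 min in 50 µL. Unbound RNA was separated by 8% native PAGE and sequenced. Relative association constants came from read-count changes of each RNA species compared with the control reaction, normalised to the cognate motif.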", "values": [{"binder": "B1", "binding signal": "0.00763 KA relative to UGCAUGU"}, {"binder": "B2", "binding signal": "0.0149 KA relative to UGCAUGU"}, {"binder": "B3", "binding signal": "0.0131 KA relative to UGCAUGU"}, {"binder": "B4", "binding signal": "0.00135 KA relative to UGCAUGU"}, {"binder": "B5", "binding signal": "0.00352 KA relative to UGCAUGU"}, {"binder": "B6", "binding signal": "0.0114 KA relative to UGCAUGU"}, {"binder": "B7", "binding signal": "0.0149 KA relative to UGCAUGU"}, {"binder": "B8", "binding signal": "0.00746 KA relative to UGCAUGU"}, {"binder": "B9", "binding signal": "0.00615 KA relative to UGCAUGU"}, {"binder": "B10", "binding signal": "0.0164 KA relative to UGCAUGU"}, {"binder": "B11", "binding signal": "0.00636 KA relative to UGCAUGU"}, {"binder": "B12", "binding signal": "0.0131 KA relative to UGCAUGU"}, {"binder": "B13", "binding signal": "0.00527 KA relative to UGCAUGU"}, {"binder": "B14", "binding signal": "0.00641 KA relative to UGCAUGU"}, {"binder": "B15", "binding signal": "0.0103 KA relative to UGCAUGU"}, {"binder": "B16", "binding signal": "0.00896 KA relative to UGCAUGU"}, {"binder": "B17", "binding signal": "0.0133 KA relative to UGCAUGU"}, {"binder": "B18", "binding signal": "0.0111 KA relative to UGCAUGU"}, {"binder": "B19", "binding signal": "0.0198 KA relative to UGCAUGU"}, {"binder": "B20", "binding signal": "0.00048 KA relative to UGCAUGU"}, {"binder": "B21", "binding signal": "0.0074 KA relative to UGCAUGU"}, {"binder": "B22", "binding signal": "0.0316 KA relative to UGCAUGU"}, {"binder": "B23", "binding signal": "0.67 KA relative to UGCAUGU"}, {"binder": "B24", "binding signal": "0.00439 KA relative to UGCAUGU"}, {"binder": "B25", "binding signal": "0.00129 KA relative to UGCAUGU"}, {"binder": "B26", "binding signal": "0.00504 KA relative to UGCAUGU"}, {"binder": "B27", "binding signal": "0.00165 KA relative to UGCAUGU"}, {"binder": "B28", "binding signal": "0.0131 KA relative to UGCAUGU"}, {"binder": "B29", "binding signal": "0.0129 KA relative to UGCAUGU"}, {"binder": "B30", "binding signal": "0.00746 KA relative to UGCAUGU"}, {"binder": "B31", "binding signal": "0.0391 KA relative to UGCAUGU"}]}]}
